# Experimental data: ChEMBL document CHEMBL4888484, “Replenishing the malaria drug discovery pipeline: Screening and hit evaluation of the MMV Hit Generation Library 1 (HGL1) against asexual blood stage Plasmodium falciparum ,using a nano luciferase reporter read-out” (2022)
# Hit rate of the full screen: of about 150,000 compounds, about 540 (0.36%) showed an effect of 50% or more. The list shows a part of the results.
# System: Plasmodium falciparum
# Test: Primary screen in NF54 nanoGlo assay, in single point, at 2uM, 72h; a lower Z score goes with more inhibition
# Format: functional, Erythrocyte
# Details: timepoint 72 hour
SMILES,% Inhibition [%],Z score
Clc1cccc2ccc(-c3cncnc3)nc12,-18,3.44
CCCN(CCN(C)C)C(=O)Cn1nc(C)c(Cl)c1C,-3,0.46
CCn1ccnc1[C@@H](NC(=O)N1CCN(C(=O)c2ccccc2)CC1)C1CCOCC1,0,0.05
CCN(CC)S(=O)(=O)c1csc(C(=O)NC(C)(C)CO)c1,-18,1.64
CCCN1C[C@@H](NC(=O)c2cccc(-c3ccc(O)cn3)c2)CC1=O,-4,0.89
Cc1cc(=O)c(C(=O)NCc2ccc3[nH]c(C)c(C)c3c2)c(C)[nH]1,1,-0.09
CC[C@@H](C(=O)Nc1ccc2c(c1)OCCO2)n1nc(C)c2c(C)onc2c1=O,-5,0.51
Cn1ncc2c(N)nc(N3CCn4nc([C@@H](O)CO)cc4C3)nc21,-19,1.88
O=C(c1c(-c2ccc(F)cc2)nc2n1CCS2(=O)=O)N1CCOCC1,-6,1
CCC(C)NS(=O)(=O)c1cc(NC(=O)CCC2CCCC2)ccc1N1CCCCC1C (stereo unspecified),-1,0.08
c1cc(-n2ccnn2)c(NCc2cnc(C3CC3)o2)cn1,17,-2.17
O=C(NC1CCCCC1)N1CCc2c(c3ccccc3n2Cc2ccccc2)C1,-7,1.16
Cc1c[nH]nc1CNCc1ccc(COC2CCOCC2)cc1,2,-0.44
CN1C[C@@H](O)CNS(=O)(=O)c2ccc(-c3cccnc3)cc2O[C@H]2CN(CCC(C)(C)C)C[C@H]21,-14,2.23
CC(C)(C)C(=O)NCCCNC(=O)c1ccco1,-29,3.43
CCOc1cc(CN2CCC(=O)NC[C@@H]2C)ccc1OCCn1ccnc1,5,-0.65
COc1ccc(-c2cc(C(=O)N3CC[C@H](n4ccnc4)C3)n[nH]2)cc1,3,-0.45
O=C(c1csnn1)N1CCc2[nH]nc(-c3ccccc3F)c2C1,-7,1.02
CC(CNC(=O)N1CCC(C(=O)O)C1)Oc1ccc(C(C)C)cc1 (stereo unspecified),-8,1.06
O=C(NCc1ccc(Cl)cc1)c1ccc2c(=O)n3c(nc2c1)CCCC3,2,-0.3
CCN1CCc2cc(OC)c(OC)cc2C1C(NC(=O)c1ccc(C)cc1)C(C)C (stereo unspecified),-2,0.36
Cc1nc(CCCNCc2ccccc2)n(-c2ccncc2C)n1,-2,0.34
CC(C)COCCN(C)C[C@@H]1CCCO1,-7,1.11
CS(=O)(=O)N[C@@H]1CC[C@H]2CCOc3ccccc3C(=O)N[C@H]3C[C@@H](C(=O)NC[C@H]1O2)N(Cc1ccc(F)c(F)c1)C3,-8,1.41
Nc1nonc1-n1nncc1-c1ccncc1,-6,0.84
Cc1ccsc1-c1cccc(C(=O)N(C)CC2(CO)CCCC2)c1,-3,0.56
C[C@@]12CN(C(=O)c3ccc4nccn4c3)CC1[C@H]1CC[C@@H]2C1 (stereo partly specified),-9,1.04

SMILES,% Inhibition [%],Z score
Cc1nc(NC(=O)c2cc3n(n2)CCCO3)sc1C,-9,1.61
Cc1ncc(C(=O)N2CCC[C@H](c3nc4c(C)cccc4[nH]3)C2)c(C)n1,2,-0.31
CC(=O)C[C@](N)(c1ccc(C)cc1)C(F)(F)F,-11,1.54
CC1(C)CCN(C(=O)NCc2nnc3n2CCOC3)CC(C)(C)C1,-3,0.54
Cc1cc(C)cc(CS(=O)(=O)CC(=O)NC(C2CC2)C2CC2)c1,-6,1.02
CC(NC(=O)Nc1ccc(N2CCCC2)c(F)c1)C1CCCO1 (stereo unspecified),-10,1.35
CC1(C)NC(=O)N(Cc2nc(-c3c[nH]c4ccccc34)n[nH]2)C1=O,-29,2.56
CN(CCCc1cc(-c2ccc(F)cc2)n(C)n1)C(=O)NCc1ccccc1,-4,0.41
COc1ncccc1NC(=O)[C@@H]1CCCO1,9,-1.24
Cc1nnc(CCNc2ncnc3c2Cc2ccccc2OC3)s1,0,0.06
COC(=O)C1CN(c2nc3ccccc3s2)C[C@@H](C)O1 (stereo partly specified),4,-0.57
COc1ccc(CCNC(=O)CC[C@@H]2CN(Cc3ccccc3)CC[C@@H]2N2CCN(C)CC2)cc1OC,-9,1.11
O=C(N[C@H]1CC[C@H](Oc2ccccn2)CC1)c1cc2n(n1)CCCO2,-2,0.17
Cc1ncc(S(=O)(=O)N2CC[C@H](Cc3ccc(F)cc3)C2)cc1C#N,-7,0.74
CC(C)[C@@H]1N(C(=O)c2cncs2)CC12CCCC2,-2,0.37
CN1CCN(C(=O)NCc2cccs2)CC1,9,-1.2
Cc1cn([C@@H](C)c2ccccc2)nc1NC(=O)CCCc1nc(C2CC2)no1,-4,0.46
NC(=O)c1ccnc(-c2cc(NCc3ccccn3)nc3[nH]ccc23)c1,-11,1.49
COc1c2c(cc3c1[C@H](c1nnnn1C(c1ccccc1)c1ccccc1)[N+](C)(C)CC3)OCO2,-1,0.07
Cc1ccc(-c2nc(N3CCN(C(=O)COCc4ccccc4)CC3)c3ccc(Cl)cc3n2)cc1,-15,1.38
O=S(=O)(c1cccc(-c2ccccc2)c1)N1CC2(CCNCC2)[C@@H]2COC[C@@H]21,-9,1.35
COc1cc(CC(=O)N2CCC[C@@](F)(C(=O)NCc3cccnc3)C2)cc(OC)c1,-30,2.62
CN(C)c1cccc(Cn2ccnc2C#N)n1,-6,0.92
N[C@H]1CCCN(C(=O)CCCc2ccccn2)C1,-11,1.43
CCc1noc(Cc2c(C)[nH]c3c(C)ccc(C)c23)n1,-3,0.56
CC(C)n1cc(C(=O)N[C@H]2CCN(C(=O)OCc3ccccc3)C2)cn1,2,-0.28
